± gives the standard deviation of the averaged measurements. Over roughly 33,000 sequences, “E-score (dimensionless, -0.5 to 0.5)” has its median near -0.046; the highest 2% begin near 0.36. The list shows a part of the results.
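Note: protein at 200 nM in PBS on universal double-stranded arrays.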

This assay has as its system T1, SpTbr T-box DNA-binding domain (GST fusion).
T1 sequence: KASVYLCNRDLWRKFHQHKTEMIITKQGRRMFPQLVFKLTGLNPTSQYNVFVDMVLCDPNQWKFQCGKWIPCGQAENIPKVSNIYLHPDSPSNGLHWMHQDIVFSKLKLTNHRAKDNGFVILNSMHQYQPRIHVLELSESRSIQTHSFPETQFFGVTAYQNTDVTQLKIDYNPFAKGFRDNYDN
Put plainly: PBM E-score of 8-mer (E-score (dimensionless, -0.5 to 0.5)); Tbr is Tbrain of the sea star Patiria miniata (Pm) or the sea urchin Strongylocentrotus purpuratus (Sp); higher = stronger binding preference; most listed sequences are background and not binding sites. Particulars: the construct has about 5 more residues each side. The procedure:
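Universal protein-binding microarray (Agilent AMADID 016060, 60-bp probes with a 35-bp variable region) incubated with 200 nM GST-fused Strongylocentrotus purpuratus Tbr T-box DNA-binding domain (residues 362-554) in PBS pH 7.5. Scored for every ungapped 8-mer (given with its reverse complement) as E-score (range -0.5 to 0.5; >0.45 counts as bound) and Z-score of median probe intensity. Two replicate arrays (datasets 1 and 2).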
On to GCTGACAA, for which the “PBM E-score of 8-mer” value was determined as 0.227 ± 0.031.
Consider AAAATCCC, for which the “PBM E-score of 8-mer” value was -0.226 ± 0.091.
With CTTGCAAC the figure was 0.0931 ± 0.0032.
To AAGCCTGA belongs -0.0652 ± 0.057; to GTACTAGA, -0.127 ± 0.0062.
To CGCGGTCA belongs 0.0538 ± 0.011; to ACTTACAG, 0.115 ± 0.089.
Regarding ACATCGGG, the “PBM E-score of 8-mer” value turned out to be 0.0346 ± 0.041.
To GAACCTAC belongs -0.227 ± 0.015; to ACTTAGTA, -0.0419 ± 0.028; to ACTCCGTC, -0.0519 ± 0.05.
As for GCCCGAAC, the “PBM E-score of 8-mer” value was -0.163 ± 0.015.
To AGCTAGCC belongs -0.13 ± 0.019; to CCTCAACC, -0.102 ± 0.052; to CTCTCGGC, 0.209 ± 0.025.
With AAGTGGGA the figure was 0.238 ± 0.037; with GGAAGGAA, -0.211 ± 0.026; with AGTCCCTC, -0.0691 ± 0.016.
With ACTTGTGA the figure was 0.412 ± 0.011; with AAGGTATG, 0.0236 ± 0.057.
As for ATTCGAGA, the “PBM E-score of 8-mer” value came out at 0.0181 ± 0.075.
Consider GGTAGTAC, for which the “PBM E-score of 8-mer” value is -0.311 ± 0.031.
To CTCCCGCA belongs -0.186 ± 0.1.
For the sequence GACATCAA, the “PBM E-score of 8-mer” value is -0.0216 ± 0.048.
With ACCCACCC the figure was 0.106 ± 0.026; with AGAAAGCA, -0.00139 ± 0.0029; with TGAAAACA, 0.06 ± 0.051.
To AACACAAG belongs 0.0489 ± 0.098.
With CGGCTTGC the figure was -0.14 ± 0.0054.
For AACACAGC, the “PBM E-score of 8-mer” value amounted to 0.115 ± 0.086.
To ATCTATAC belongs -0.117 ± 0.0014.
Consider CCACTCCC, for which the “PBM E-score of 8-mer” value is -0.0266 ± 0.047.
To CAGGCGGC belongs 0.0345 ± 0.014.
To CATATCGA belongs -0.154 ± 0.056; to GGTTGGGA, -0.274 ± 0.1; to CTCAACAC, 0.269 ± 0.022.
With ACACTTAT the figure was 0.402 ± 0.0068; with ACCGTACT, -0.109 ± 0.043.
AATCCTCT: the “PBM E-score of 8-mer” value is -0.0232 ± 0.055.
CACTTCAG: the “PBM E-score of 8-mer” value came out at 0.269 ± 0.049.
With ACCGTTGA the figure was -0.159 ± 0.022.
With CTGACCCC the figure was -0.2376 ± 0.0005; with GAGCAAAA, -0.074 ± 0.036.
With CACTACGC the figure was 0.169 ± 0.05.
For the sequence ATCCAGGA, the “PBM E-score of 8-mer” value is -0.0833 ± 0.056.
With TGACTACA the figure was -0.075 ± 0.11.
With AACCATAC the figure was -0.171 ± 0.013; with CAACTGCG, 0.13 ± 0.032; with CTCCCTCC, 0.00507 ± 0.0053.
To GAACAGCC belongs 0.0705 ± 0.014; to ACATTCGG, -0.177 ± 0.057; to CACTTGGA, 0.223 ± 0.026.
Regarding AGAGTCAC, the “PBM E-score of 8-mer” value worked out at 0.147 ± 0.082.
For the sequence ACTAGTAA, the “PBM E-score of 8-mer” value was -0.158 ± 0.058.
With CAGGTAGG the figure was 0.0642 ± 0.056.
As to AGATACTA, the “PBM E-score of 8-mer” value is -0.212 ± 0.051.
With AGGCCCTA the figure was -0.259 ± 0.014; with GACTGAAA, 0.039 ± 0.028; with AGCCATCA, -0.12 ± 0.041.
With CGAAAACC the figure was -0.297 ± 0.0092.
With AATATTAT the figure was -0.0133 ± 0.0078; with CGTTAACC, 0.113 ± 0.07; with TCTAGGAA, -0.24 ± 0.038.
In the case of GAGAAAGA, the “PBM E-score of 8-mer” value was -0.0698 ± 0.013.
With GGTTGGCA the figure was 0.175 ± 0.033; with CTAAGTCA, -0.021 ± 0.041.
To CATTCGTC belongs -0.0309 ± 0.043; to AATTCGCC, 0.0743 ± 0.06.
To ATAGCTGC belongs 0.0568 ± 0.00099.
As to GCGGGCAA, the “PBM E-score of 8-mer” value is -0.219 ± 0.011.
To CTACGTGA belongs 0.0334 ± 0.011.
With CCCAACTA the figure was -0.164 ± 0.083; with CCCGAGAG, -0.0846 ± 0.014; with ACTACGTA, -0.181 ± 0.067.
With CCCATCTA the figure was -0.138 ± 0.0069.
Consider ACACCATA, for which the “PBM E-score of 8-mer” value was 0.231 ± 0.071.
With ATGATCCA the figure was -0.103 ± 0.027; with AGCATATC, 0.0068 ± 0.022; with GCGTTTGA, -0.0764 ± 0.061.
To AATATTGT belongs 0.0494 ± 0.035; to AATCTAAC, -0.00121 ± 0.0062.
To TAACCATA belongs -0.1302 ± 0.00064; to AAAGAGGG, -0.0825 ± 0.036.
Consider CTGCCATA, for which the “PBM E-score of 8-mer” value worked out at 0.0347 ± 0.0076.
With AGCGCTAC the figure was 0.128 ± 0.024; with GTAGATGA, -0.143 ± 0.041.
